According to the supplement of paper PMC11383711:
The other results are listed elsewhere or left out. Binding of human antibodies (heavy:light variable regions, tested as scFv in one mRNA-display pool) to influenza hemagglutinin, with or without the stem antibody CR9114 bound first. Score = (mean enrichment − median) / interquartile range of that screen; higher = more enriched, 0 = typical non-binder. Active = above the paper's cut-off per screen: stems 28; unblocked H1 Solomon Islands 5, H1 Michigan 3, H3 5, H5 19, H7 2.85, both B 5; blocked 9, 7, H5 10, H7 10, B Phuket 10, B Lee 11.5. Scores are scaled within each screen and are no affinities; replicates correlate at about 0.6 to 0.9, and antibodies rare in the pool are noisier.

B1: R95-1B02 (protein)
chain 1: QVHLQESGPGLVKPSETLSLTCSVSAGSLTSHFWSWIRQPPGKGLEWIGYIHHSGTTGYNPSLKSRVTISVDTSKNQFSLHLTSVTAADTAVYYCARDGSSTSWYFDFWGRGTLVTVSS
chain 2: QSALTQPRSVSGSPGQSVTISCTGTASDVGAYDFVSWYRQHPGKAPKLIIYDVSQRPSGVPDRFSGSKSGNTASLTISGLQADDEGDYHCCSYTGTDTSGVFGGGTKLTVL
B2: 037-10-5E04 (protein)
chain 1: QVQLQESGPGLVKPSETLSLTCTVSGTSITTHYWSWIRQTPGKGLEWIGHISSDGTTNFNPSLKSRVTISMDTSKNQFSLNLSSVTAADTAVYYCARDFRERLGHRWEQAFDFWGQGSLVTVSS
chain 2: DIQMTQSPSSLSASVGDRVTITCRASQSISSSLNWYRQEPGKAPKFLIYIASNLQSGVPSRFSGSGSGTDFTLTISSLQPEDFATYYCQQSYSTPWTFGQGTKVEIK
B3: 01.g.01 (protein)
chain 1: EVQLVESGGGLVKPGGSLRLSCAASGFTFSSYSMNWVRQAPGKGLEWVSSISSNSYFIYYADSVKGRFTISRDNAKNSLSLQMNSLRAEDTAIYYCARDAGSTGYDYYFDYWGQGTLVTVSS
chain 2: EIVMTQSPATLSVSPGERATLSCRASQSVSSNLAWYQQKPGQAPRLLIYGASTRATGIPARFSGSGSGTEFTLTISSLQSEDFAVYYCQHYNNWPPWTFGQGTKVEIK
B4: AG8-2D02 (protein)
chain 1: VQLVQSGAEVKKPGASVRLSCKASGFRFTNYYFNWVRQAPGQGLEWMGIINPSGGATTYAQKFQGRVTMTRDTSTSTVYMELGSLRSEDTAVYYCARMATLTASYFYSYGMDVWGQGTTVTVSS
chain 2: EIVLTQSPGTLSLSPGERVTLSCRASQSVSSSYVAWYQQKPGQAPRLLIYAASTRATGIPDRFSGSGSGTDFTLTISRLEPEDFAVYYCQQYGTSPALTFGGGTKVEIK
B5: W85-3D10 (protein)
chain 1: EVQLVESGGGLVQPGGSLRLSCAASGLSVSGNYISWVRQAPGKGLEWVSVMYAGGRKYYADSVKGRFSISRDQSKNTVYLQMDSLRVEDTAVYYCAGTYLEWLDYWGQGTLVAVSS
chain 2: DIQMTQSPSSLSASVGDRVTITCRASQSISTYLNWYQQRPGRAPKLLIYAASTLQSGVPSRFSGSGSGTDFTLTITGLQPADFATYYCQQTYSSLITFGPGTRVDLK
B6: R95-1G10 (protein)
chain 1: EVQLVESGGGSVQPGGSLRLSCAASGFSFSNYWMHWVRQAPGKGLVWVSRVISDGTITSYVDSVEGRFTISRDNAENTLYLQMDSLRAEDTAVYYCARGYSTSSGIWYFDLWGRGTLVTVSS
chain 2: SYELTQPPSVSVAPGQTARVTCGGDNIGSKSVHWYQQKSGQAPVLVVYDDSDRPSGIPERFSGSNSGNTATLTISRVEAGDEADYYCQVWDSSTDHWVFGGGTKLTVL

These binders were tested against Influenza A H1N1 A/Michigan/45/2015 hemagglutinin ectodomain (assay: mRNA display binding score; higher = more enriched on the antigen). Conditions: antigen blocked with: 2 µM CR9114 IgG.
Method: (§1)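 A pool of natively paired antibodies, displayed as scFv on mRNA, was selected once on antigen-coated beads and sequenced before and after; two replicates.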

| Binder | mRNA display binding score |
| --- | --- |
| B1 | inactive: -0.342 |
| B2 | active: 50.8 |
| B3 | inactive: -0.397 |
| B4 | inactive: 0.5 |
| B5 | inactive: 0.129 |
| B6 | inactive: -0.115 |

Same assay, conditions: antigen blocked with: nothing

| Binder | mRNA display binding score |
| --- | --- |
| B1 | inactive: 0.894 |
| B2 | active: 5.69 |
| B3 | inactive: -0.628 |
| B4 | inactive: 1.45 |
| B5 | inactive: -0.408 |
| B6 | inactive: -0.125 |

The binders below were run against Influenza A H1N1 A/Solomon Islands/3/2006 hemagglutinin ectodomain in the same assay as above. Conditions: antigen blocked with: 2 µM CR9114 IgG.
Method: as §1

| Binder | mRNA display binding score |
| --- | --- |
| B1 | inactive: -0.253 |
| B2 | inactive: 0.655 |
| B3 | inactive: -0.667 |
| B4 | inactive: 0.654 |
| B5 | inactive: -0.276 |
| B6 | inactive: -0.469 |

Same assay, conditions: antigen blocked with: nothing

| Binder | mRNA display binding score |
| --- | --- |
| B1 | inactive: 1.21 |
| B2 | inactive: -0.13 |
| B3 | inactive: -0.646 |
| B4 | inactive: 0.631 |
| B5 | inactive: -0.0914 |
| B6 | inactive: -0.374 |

These binders were tested against Influenza A H3N2 A/Singapore/INFIMH-16-0019/2016 hemagglutinin ectodomain in the same assay as above. Conditions: antigen blocked with: nothing.
Method: as §1

| Binder | mRNA display binding score |
| --- | --- |
| B1 | inactive: 1.12 |
| B2 | active: 102 |
| B3 | inactive: -0.494 |
| B4 | inactive: 0.647 |
| B5 | inactive: 0.372 |
| B6 | inactive: 0.101 |

What follows are binders tested against Influenza A H5N1 A/Qinghai/1A/2005 hemagglutinin ectodomain in the same assay as above. Conditions: antigen blocked with: 2 µM CR9114 IgG.
Method: as §1

| Binder | mRNA display binding score |
| --- | --- |
| B1 | inactive: 0.166 |
| B2 | inactive: -0.388 |
| B3 | inactive: -0.781 |
| B4 | inactive: 0.927 |
| B5 | inactive: -0.456 |
| B6 | inactive: 1.22 |

Same assay, conditions: antigen blocked with: nothing

| Binder | mRNA display binding score |
| --- | --- |
| B1 | inactive: 0.86 |
| B2 | inactive: -0.0836 |
| B3 | inactive: -0.473 |
| B4 | inactive: 0.797 |
| B5 | inactive: -0.355 |
| B6 | inactive: 1.83 |

The binders below were run against Influenza A H7N9 A/Shanghai/2/2013 hemagglutinin ectodomain in the same assay as above. Conditions: antigen blocked with: 2 µM CR9114 IgG.
Method: as §1

| Binder | mRNA display binding score |
| --- | --- |
| B1 | inactive: 0.366 |
| B2 | active: 15.7 |
| B3 | inactive: -0.525 |
| B4 | inactive: 0.453 |
| B5 | inactive: -0.989 |
| B6 | inactive: -0.131 |

Same assay, conditions: antigen blocked with: nothing

| Binder | mRNA display binding score |
| --- | --- |
| B1 | inactive: 0.998 |
| B2 | inactive: 0.784 |
| B3 | inactive: -0.623 |
| B4 | inactive: 1.82 |
| B5 | inactive: -0.527 |
| B6 | inactive: -0.0595 |

What follows are binders tested against Influenza B/Lee/1940 hemagglutinin ectodomain in the same assay as above. Conditions: antigen blocked with: 2 µM CR9114 IgG.
Method: as §1

| Binder | mRNA display binding score |
| --- | --- |
| B1 | inactive: -0.434 |
| B2 | inactive: -0.822 |
| B3 | inactive: -0.439 |
| B4 | inactive: -0.238 |
| B5 | inactive: 1.03 |
| B6 | inactive: 2.93 |

Same assay, conditions: antigen blocked with: nothing

| Binder | mRNA display binding score |
| --- | --- |
| B1 | inactive: 0.0571 |
| B2 | inactive: 0.0381 |
| B3 | inactive: -0.271 |
| B4 | inactive: 0.133 |
| B5 | inactive: 4.52 |
| B6 | active: 25.4 |

Each binder was assayed against Influenza B/Phuket/3073/2013 hemagglutinin ectodomain in the same assay as above. Conditions: antigen blocked with: 2 µM CR9114 IgG.
Method: as §1

| Binder | mRNA display binding score |
| --- | --- |
| B1 | inactive: -0.26 |
| B2 | inactive: 0.341 |
| B3 | inactive: -0.482 |
| B4 | inactive: 0.317 |
| B5 | inactive: -0.646 |
| B6 | inactive: 4.41 |

Same assay, conditions: antigen blocked with: nothing

| Binder | mRNA display binding score |
| --- | --- |
| B1 | inactive: -0.037 |
| B2 | inactive: -0.116 |
| B3 | inactive: -0.275 |
| B4 | inactive: 0.193 |
| B5 | inactive: -0.297 |
| B6 | active: 10.9 |
